From the supplement of paper PMC4967469
pIC50: −log10 of the molar value. A lower IC50 marks a more sensitive line; a limit (>, <) means that the fit lies beyond the doses tested. For AUC the same curve is integrated over the 256-fold range of doses and scaled to a fraction; the more sensitive the line, the further below 1. For some of these results: The top dose, if marked as inferred, is not printed in the source and was worked back from the curve model.

Legend:
Assay in all cases: Viability of human cancer cell lines after 72 h of drug (GDSC screen)
XL-880 = compound: COc1cc2c(Oc3ccc(NC(=O)C4(C(=O)Nc5ccc(F)cc5)CC4)cc3F)ccnc2cc1OCCCN1CCOCC1 [XL-880]; conditions: top dose 5.12 µM; top dose inferred
Protocol: (§1)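 Human cancer cell lines in 384-well plates, medium with 10% serum, drug for 72 h over a 256-fold dose range (nine 2-fold or five 4-fold steps up to the top dose). Adherent lines were fixed and stained with the nucleic acid dye Syto60, suspension lines read with resazurin; signal relative to control wells, capped at 0 and 100%. One two-parameter sigmoid per drug and line, fitted in a mixed model over all curves with the slope shared within a line.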

Tubastatin A = compound: CN1CCc2c(c3ccccc3n2Cc2ccc(C(=O)NO)cc2)C1 [Tubastatin A]; conditions: top dose 20 µM
Protocol: as §1

IPA-3 = compound: Oc1ccc2ccccc2c1SSc1c(O)ccc2ccccc12 [IPA-3]; conditions: top dose 32 µM; top dose inferred
Protocol: as §1

Temozolomide = compound: Cn1nnc2c(C(N)=O)ncn2c1=O [Temozolomide]; conditions: top dose 30 µM
Protocol: as §1

Row | Cell Line | AUC (XL-880) | pIC50 (XL-880) | AUC (Tubastatin A) | pIC50 (Tubastatin A) | AUC (IPA-3) | pIC50 (IPA-3) | AUC (Temozolomide) | pIC50 (Temozolomide)
1 | LCLC-103H (large cell lung carcinoma, adherent) | 0.704 | 5.95 | 0.976 | < 4.70 | 0.791 | 4.89 | 0.99 | < 4.52
2 | Hep 3B2_1-7 (liver, adherent) | 0.544 | 6.38 | 0.981 | < 4.70 | 0.867 | 4.54 | 0.985 | < 4.52
3 | MKN1 (stomach, adherent) | 0.69 | 5.95 | 0.979 | < 4.70 | 0.856 | 4.55 | 0.985 | < 4.52
4 | ME-180 (cervix, adherent) | 0.571 | 6.30 | 0.985 | < 4.70 | 0.986 | < 4.49 | 0.98 | < 4.52
5 | GAMG (glioma, adherent) | 0.527 | 6.42 | 0.944 | < 4.70 | 0.699 | 5.13 | 0.983 | < 4.52
6 | PL18 (pancreas, adherent) | 0.717 | 5.88 | 0.987 | < 4.70 | 0.97 | < 4.49 | 0.98 | < 4.52
7 | KP-4 (pancreas, adherent) | 0.713 | 5.91 | 0.835 | 4.91 | 0.988 | < 4.49 | 0.985 | < 4.52
8 | SW900 (lung squamous cell carcinoma, adherent) | 0.753 | 5.71 | 0.959 | < 4.70 | 0.854 | < 4.49 | 0.971 | < 4.52
9 | A172 (glioma, adherent) | 0.665 | 6.04 | 0.988 | < 4.70 | 0.828 | 4.73 | 0.97 | < 4.52
10 | HCC1806 (breast, adherent) | 0.771 | 5.74 | 0.843 | 4.90 | 0.887 | 4.52 | 0.977 | < 4.52
11 | MS751 (cervix, adherent) | 0.823 | 5.57 | 0.979 | < 4.70 | 0.99 | < 4.49 | 0.988 | < 4.52
12 | SW837 (large intestine, adherent) | 0.655 | 6.00 | 0.965 | < 4.70 | 0.729 | 4.95 | 0.977 | < 4.52
13 | 786-0 (kidney, adherent) | 0.559 | 6.34 | 0.959 | < 4.70 | 0.556 | 5.55 | 0.955 | < 4.52
14 | OAW-28 (ovary, adherent) | 0.551 | 6.34 | 0.968 | < 4.70 | 0.982 | < 4.49 | 0.976 | < 4.52
15 | HLE (liver, adherent) | 0.656 | 6.07 | 0.945 | < 4.70 | 0.652 | 5.29 | 0.978 | < 4.52
16 | COR-L32 (small cell lung carcinoma, suspension) |  |  |  |  |  |  | 0.941 | < 4.52

Row | Cell Line | AUC (XL-880) | pIC50 (XL-880) | AUC (Tubastatin A) | pIC50 (Tubastatin A) | AUC (IPA-3) | pIC50 (IPA-3) | AUC (Temozolomide) | pIC50 (Temozolomide)
17 | CHP-134 (neuroblastoma, suspension) | 0.544 | 6.36 | 0.923 | < 4.70 |  |  |  | 
18 | TCCSUP (bladder, adherent) | 0.704 | 5.88 | 0.982 | < 4.70 | 0.894 | < 4.49 | 0.955 | < 4.52
19 | SNU-1040 (large intestine, adherent) | 0.719 | 5.77 | 0.982 | < 4.70 |  |  | 0.974 | < 4.52
20 | SNU-475 (liver, adherent) | 0.549 | 6.37 |  |  | 0.919 | < 4.49 |  | 
21 | HO-1-N-1 (head and neck, adherent) | 0.704 | 5.95 | 0.979 | < 4.70 | 0.988 | < 4.49 | 0.968 | < 4.52
22 | RD (rhabdomyosarcoma, adherent) | 0.62 | 6.15 | 0.919 | < 4.70 | 0.907 | < 4.49 | 0.981 | < 4.52
23 | NCI-H522 (lung adenocarcinoma, adherent) | 0.756 | 5.69 | 0.936 | < 4.70 | 0.835 | 4.57 | 0.979 | < 4.52
24 | Caov-3 (ovary, adherent) | 0.593 | 6.25 | 0.991 | < 4.70 | 0.964 | < 4.49 |  | 
25 | SW1463 (large intestine, adherent) | 0.895 | < 5.29 | 0.971 | < 4.70 | 0.976 | < 4.49 | 0.975 | < 4.52
26 | SISO (cervix, adherent) | 0.665 | 6.05 | 0.957 | < 4.70 | 0.983 | < 4.49 | 0.89 | < 4.52
27 | HSC-3 (head and neck, adherent) | 0.754 | 5.82 | 0.99 | < 4.70 | 0.767 | 4.99 | 0.957 | < 4.52
28 | ChaGo-K-1 (non-small cell lung carcinoma, adherent) | 0.786 | 5.59 | 0.98 | < 4.70 | 0.842 | 4.56 | 0.982 | < 4.52
29 | CAMA-1 (breast, adherent) | 0.921 | < 5.29 | 0.957 | < 4.70 | 0.918 | < 4.49 | 0.937 | < 4.52
30 | BFTC-909 (kidney, adherent) | 0.83 | 5.51 | 0.988 | < 4.70 | 0.984 | < 4.49 | 0.951 | < 4.52
31 | MDA-MB-157 (breast, adherent) | 0.792 | 5.62 | 0.984 | < 4.70 | 0.975 | < 4.49 | 0.987 | < 4.52
32 | HPAF-II (pancreas, adherent) | 0.641 | 6.05 | 0.969 | < 4.70 | 0.98 | < 4.49 | 0.975 | < 4.52
